In PubChem BioAssay (NCI):
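Where inhibition never reached the appropriate level, the endpoint shown equals the highest concentration tested. Otherwise, values were interpolated linearly from a five-concentration, 48-hour dose response in 96-well plates. GI50 is the concentration that inhibits growth by half. Definition used: TGI = concentration required for complete inhibition of growth.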

System: NCI-H322M lung
Experiment: inhibition of tumour cell growth, NCI panel, 48 h

CN(C)c1nc(NCCNS(=O)(=O)c2ccc(C(=O)/C=C/c3ccc(Cl)cc3)cc2)nc(Nc2ccc(F)cc2)n1
GI50: 9.36 µM | TGI: 24.9 µM
